# In the supplement of paper PMC11417369:
# ± gives the standard deviation of the averaged measurements. The list shows a part of the results.
# Test system: PfAP2-I AP2 domain 3 (GST-tagged)
# Test: gcPBM binding intensity (ln(normalized median fluorescence intensity)); higher = stronger DNA binding
# In short: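 For binding intensity, the highest Masliner-normalised natural-log median intensity across replicate spots of either probe orientation was taken. Protein bound to the array was stained with Alexa488 anti-GST antibody and scanned at 488 nm. The protein, GST-tagged P. falciparum DNA-binding domains from E. coli at about 25 μg on average, had been applied for 1 h to an Agilent 4 × 180k array of primer-extended double-stranded 36-bp intergenic genomic probes and negative controls.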
row,Sequence,gcPBM binding intensity (ln)
1,CTTTCTTATTTGAACGCATGCATTTGTACCTTTTAT [TGCATGCA_site671],8.08 ± 1
2,TATATACAAAATGCCTGTACATATATATTTATTTAT [XGTACX_site761],7.59 ± 0.53
3,CATGCAAAAAATTCCACACACACACCCACATATAAA [CACACA_site1229],8.135 ± 0.064
4,CCATAAAAAGGATACACACACACACCGACATATATA [CACACA_site4653],7.8 ± 0.45
5,GTATTATATTTCAACTGTACGTAAAACTATTAAAAT [XGTACX_site3679],8.01 ± 0.58
6,TTCATTTAGCAAGAATGTACTTATATATATATATAT [XGTACX_site3401],9.29 ± 0.15
7,CAAAAAAATGTGAAGGCATGCAAATATGTAAAATAA [TGCATGCA_site921],8.17 ± 0.69
8,ATAAAGCCATACAATACACACATTTTACATGGGGGT [CACACA_site9072],8.95 ± 0.33
9,AAAAATATAATATAATGTACACAAAAAAAAAAAAAT [XGTACX_site4914],8.18 ± 0.15
10,TATAAATTTGTTGTTGCATGCAGTATACCAAAAAAA [TGCATGCA_site445],8.34 ± 0.72
11,ATTTGTAATTTATATTCACACATTCAAAAAAATGAG [CACACA_site6057],7.59 ± 0.52
12,TAAAATGTAATCTGAACACACATATTTTTTTAATAT [CACACA_site1768],7.42 ± 0.43
13,AATAGCCCATATGGAATACACACTGAAAATAAAAAA [CACACA_site3373],7.85 ± 0.68
14,AATACGAAGGATAAGAGTACTAATTAAATAAATGAA [XGTACX_site523],7.78 ± 0.49
15,ATATAAGAATAAATAGTGCAAAATAAATGATTATTT,10.7 ± 0.33
16,GTATATAAGTATATATGTACATATATTTTATATATA [XGTACX_site4745],7.62 ± 0.28
17,TTTTATAATTTAAAATAATGAAACTTCTTTCTATTT [TGCATGCA_negctrl_site324],7.2 ± 0.67
18,TTTTTTTTTTTTTTGGTGCGATCTTTTAAATGATCC,8.51 ± 0.11
19,TTTAAATTTTAATATGCACACAAAATGTTATATTAA [CACACA_site8015],9.06 ± 0.13
20,TTTCTGATATTTTTATATTTTCTTATATATATATAT [GTGCAC_negctrl_site652],8.88 ± 0.55
21,TTTTCAATTAATAATACACACATGTATATATTATTA [CACACA_site3311],7.79 ± 0.47
22,TACAAATACATTACATGTACATATTTAATAATATCA [XGTACX_site2075],7.72 ± 0.22
23,AAGAAAAATATATATATAAATAAATAAATATATATA [TGCATGCA_negctrl_site330],7.56 ± 0.49

row,Sequence,gcPBM binding intensity (ln)
1,TTTGAAAAGTATGAGGTGCAAAAAATGTAATGAAAT,10.6 ± 0.24
2,TATATTATTATGCATAGTACGTACTGTGATAAGAAT [XGTACX_site2956],8.21 ± 0.4
3,CATTTTAAAACAGACACACACCAAAAAAAAAAAAAA [CACACA_site6259],8.04 ± 0.57
4,TTTTTCTGTCGTTGTTGTACTTGAGGAGTAACAATT [XGTACX_site7852],8.15 ± 0.53
5,AATAATAAATATATATATATATATATATATATATTT [CACACA_negctrl_site786],7.95 ± 0.42
6,ATATATATATATATAGTGCAAATATCTTCTTTATAA,10.4 ± 0.26
7,TAATAAACCAAACTAAACAATATATCAAAAAGCACA [CACACA_negctrl_site269],9.12 ± 0.32
8,TATTATATCGAACACTGTACTTTTTTATTCAACCTA [XGTACX_site493],7.96 ± 0.51
9,GCCTTTTTATTTAGAACACACACAAAAAAAAAAAAA [CACACA_site8520],8.27 ± 0.3
10,AAAAGTTGTTTATAATGTACAAGGTAGAAAAAAACA [XGTACX_site1454],8.23 ± 0.78
11,TAAATGGATTGTTCAGGTACACATAAATATGATATT [XGTACX_site6963],7.58 ± 0.57
12,ATATTATATAATAATGCATGCACCTTATTTTCATTT [TGCATGCA_site405],9.31 ± 0.29
13,ATTATATTATTTTAAAGTACACACATATATTAATAT [XGTACX_site4769],7.9 ± 0.38
14,AACAAAATAAAAATAACACACACATTTATATATATA [CACACA_site8313],8.57 ± 0.042
15,ATTTTTCCTCTCTTTTGTACTTATATATATATATAT [XGTACX_site7405],9.55 ± 0.47
16,ATAAATACTTTTTGGTGTACACTTTTAAATGAAAAA [XGTACX_site3042],8.2 ± 0.16
17,CAATTAAAGAAAAACAGTACGTGTATCAAACATCCT [XGTACX_site8990],7.76 ± 0.46
18,ATATGCTAATAAAATTGTACATATTATTCATATTGT [XGTACX_site2344],7.57 ± 0.53
19,TGACTACATAAAATGACACACACAAACTTTAAAATT [CACACA_site9151],7.84 ± 0.76
20,ATATATTTTTAGCACAGTACAATATAATTAAATATA [XGTACX_site6779],8.36 ± 0.36
21,TAGTATTATTATTATGCACACAAAAATATTTATACA [CACACA_site9219],10.1 ± 0.48
22,TTTTTTTTTTTTTTTTGTACATAATTATATATTTAC [XGTACX_site7540],8.12 ± 0.59
